In patent US20220340685A1, “COMBINATION THERAPY WITH ENTPD2 AND CD73 ANTIBODIES” (Novartis AG, priority 2019, published 2022):

T1: Human ENTPD1 (NP_001767) expressing NIH/3T3 cells (Homo sapiens, UniProt P49961)
T1 construct: expressed in transfected cells; host or cells: NIH/3T3 (retroviral transduction, FACS-sorted)
T1 sequence (P49961 1-510): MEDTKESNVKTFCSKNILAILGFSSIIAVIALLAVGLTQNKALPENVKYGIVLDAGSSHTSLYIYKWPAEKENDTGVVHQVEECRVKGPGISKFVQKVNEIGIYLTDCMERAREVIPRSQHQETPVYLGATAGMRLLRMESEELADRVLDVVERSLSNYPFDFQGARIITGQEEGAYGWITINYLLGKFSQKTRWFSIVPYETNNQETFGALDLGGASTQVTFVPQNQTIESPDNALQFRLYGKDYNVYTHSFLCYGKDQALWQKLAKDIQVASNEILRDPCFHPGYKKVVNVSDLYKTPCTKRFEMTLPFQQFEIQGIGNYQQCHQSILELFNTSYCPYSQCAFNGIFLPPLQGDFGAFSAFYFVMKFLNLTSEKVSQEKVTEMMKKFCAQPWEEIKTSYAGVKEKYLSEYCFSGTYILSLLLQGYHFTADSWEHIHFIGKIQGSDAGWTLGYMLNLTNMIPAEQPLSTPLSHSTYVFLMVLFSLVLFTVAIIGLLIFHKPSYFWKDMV

T2: mouse ENTPD2 (Mus musculus, UniProt O55026)
T2 construct: residues 29-462 of mouse or rat ENTPD2 (the extracellular domain); His6; mouse IgK signal peptide (N); made in house; host or cells: FreeStyle 293-F cells (transient)
T2 sequence (O55026 29-462): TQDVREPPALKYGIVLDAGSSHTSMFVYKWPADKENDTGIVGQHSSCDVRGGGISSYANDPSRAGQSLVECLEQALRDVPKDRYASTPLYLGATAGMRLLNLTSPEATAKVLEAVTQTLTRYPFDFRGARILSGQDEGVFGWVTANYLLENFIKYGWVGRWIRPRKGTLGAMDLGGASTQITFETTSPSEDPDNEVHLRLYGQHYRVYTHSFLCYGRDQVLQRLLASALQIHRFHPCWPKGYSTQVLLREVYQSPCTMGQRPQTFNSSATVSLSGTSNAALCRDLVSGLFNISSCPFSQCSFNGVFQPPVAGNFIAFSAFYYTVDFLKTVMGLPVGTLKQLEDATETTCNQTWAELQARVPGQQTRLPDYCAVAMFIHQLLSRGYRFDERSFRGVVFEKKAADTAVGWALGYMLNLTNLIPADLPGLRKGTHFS

B1: mAb6: humanized anti-human ENTPD2 antibody derived from mAb16; probably heavy chain SEQ ID NO: 72, light chain SEQ ID NO: 76 (antibody)
heavy: QVQLQESGPGLVKPSQTLSLTCTVSGYSITSGYYWNWIRQHPGKGLEWMGYISYDADNNYNPSLKNRITISRDTSKNQFSLKLSSVTAADTAVYYCAGGYYRYGLGSYSGSYYYVMDYWGQGTTVTVSSASTKGPSVFPLAPSSKSTSGGTAALGCLVKDYFPEPVTVSWNSGALTSGVHTFPAVLQSSGLYSLSSVVTVPSSSLGTQTYICNVNHKPSNTKVDKRV[left out - human IgG1 Fc]
light: DTQMTQSPSSLSVSVGDRATITCKASQSVDYEGHSYMNWYQQKPGKAPKLLIYAASNLESGVPSRFSGSGSGTDFTLTISSVQPEDFATYYCQQSNEDPPTFGGGTKLEIKRTVAAPSVFIFPPSDEQLKSGTASVVCLLNNFYPREAKVQWKVDNALQSGNSQESVTEQDSKDSTYSLSSTLTLSKADYEKHKVYACEVTHQGLSSPVTKSFNRGEC
B2: mAb1: humanized anti-human ENTPD2 human IgG1 antibody derived from mAb17; heavy chain SEQ ID NO: 12, light chain SEQ ID NO: 23 (antibody)
heavy: EVQLVQSGAEVKKPGESLKISCKASGYTFTDYNMDWVRQMPGKGLEWMGDINPKYDISTYNQQFKGQVTISADKSIRTAYLQWSSLKASDTAMYYCARRGFFLYYGINYYYFDVWGQGTLVTVSSASTKGPSVFPLAPSSKSTSGGTAALGCLVKDYFPEPVTVSWNSGALTSGVHTFPAVLQSSGLYSLSSVVTVPSSSLGTQTYICNVNHKPSNTKVDKRV[left out - human IgG1 Fc]
light: DIQLTQSPSSLSASVGDRVTITCSASSSVSYIHWFQQKPGKAPKLLIYSTSNLASGVPSRFSGSGSGTFFTLTISSLQPEDFATYFCHQWSSYPWTFGQGTKVEIKRTVAAPSVFIFPPSDEQLKSGTASVVCLLNNFYPREAKVQWKVDNALQSGNSQESVTEQDSKDSTYSLSSTLTLSKADYEKHKVYACEVTHQGLSSPVTKSFNRGEC

Tests used:
[1] = molecular target: T1, Human ENTPD1 (NP_001767) expressing NIH/3T3 cells; assay: Cross reactivity: FACS binding to human ENTPD1 expressing NIH/3T3 cells; settings: 50 nM antibody
[2] = molecular target: T2, mouse ENTPD2; assay: Antibody specificity: binding to mouse ENTPD2; settings: for Mouse ENTPD2 BIACore KD (nM): Biacore SPR
Experimental: ELISA screening on directly coated antigen: Maxisorp™ 384-well plates (Thermo Nunc) were coated with 2 μg/ml of recombinant ENTPD2 diluted in PBS. After blocking with 2% BSA (bovine serum albumin) in PBS for 1 hr at room temperature, washing plates 3× with TBST (0.05% Tween 20 in TBS, Sigma Cat# T9039), primary antibodies in TBST and 2% BSA were added in a serial dilution and incubated for 1 hr at room temperature. Plates were washed again and bound antibodies were detected by incubation with anti-hFc gamma conjugated to horseradish peroxidase (HRP; Jackson ImmunoResearch, Cat#115-035-098, diluted 1:5000 in 1× TBST+2% BSA) for 1 hr at room temperature followed by washing with TBST and afterwards addition of SureBlue Peroxidase substrate (KPL, #52-00-03) substrate. After 15 min, absorbance at 650 nm was recorded and analyzed in GraphPad Prism6.
(§1) Biacore Screening: Affinity was measured by determining the kinetic rate constants using surface plasmon resonance (SPR) on a Biacore T200 or T100 with the T200 sensitivity upgrade instrument (Biacore, GE Healthcare). Antibodies were captured on CM5 sensor chips (Biacore, GE Healthcare) prepared with a mouse anti-human IgG Fc antibody (ThermoFisher catalogue # 05-4200) amine coupled to the surface. […] ENTPD2 analytes were allowed to associate for 180 s and dissociate for up to 1800 s depending on the off-rate of the antibody at a flow rate of 30 μL/min. The running buffer was PBS pH 7.2 (prepared from a Corning 10X stock, cat# 46-013-CM) +0.05% Tween 20. Regeneration was accomplished with 30 s injections of 3 or 4 M MgCl2 to remove all the captured antibody and remaining complex from the surface, after which fresh antibody was captured. The raw data were analyzed using Biacore T200 Evaluation Software version 1.0 and fit to a 1:1 binding model, with all parameters set to fit globally except for RI, which was set to fit locally.
Antibody specificity for mAb1-mAb10 was confirmed. […] Antibodies mAb8, mAb9, and mAb10 show weak affinity to mouse ENTPD2. None of the selected antibodies bind to rat ENTPD2.

[3] = test system: cynomologus (cyno) ENTPD2; assay: Biacore SPR kinetic affinity to cyno ENTPD2 ECD; assay type: binding, cynomolgus monkey; settings: 25° C.; for Cyno ENTPD2 ka: association rate; for Cyno ENTPD2 kd: dissociation rate
Experimental: as §1

Molecule	Apparent FACS binding at 50 nM, NIH/3T3 - ENTPD1 [1]	Mouse ENTPD2 BIACore KD (nM) [2]	Cyno ENTPD2 ka [3]	Cyno ENTPD2 kd [3]	binding / cross-reactivity to mouse ENTPD2 [2]
B1	No binding	No binding	290000 M⁻¹ s⁻¹	0.01 s⁻¹	–
B2	No binding	No binding	360000 M⁻¹ s⁻¹	0.0012 s⁻¹	not mouse ENTPD2 cross-reactive
